Results on 63 compounds are retold here after the supplement of paper PMC9446081.

Molecules are shown by their SMILES. About 220 (0.56%) of roughly 39,000 compounds showed activity. Some of the results follow.
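Note: static incubation at 37 °C against the wild-type strain, values averaged over two biological replicates.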

The experiment relates to Escherichia coli K-12 BW25113. As to the kind of experiment: relative growth (OD600 normalised to plate interquartile mean) (fraction); higher = less growth inhibition, active = 0.2 or less. Conditions: 50 µM; LB; incubation time: overnight (16-24 h).
On to `C[C@H]1CCCCO[C@H](CN(C)Cc2ccc3c(c2)OCO3)[C@@H](C)CN([C@@H](C)CO)C(=O)c2cc(NC(=O)Nc3cccc4ccccc34)ccc2O1`, for which the relative growth is inactive: 1.01.
Next, `COc1ccc(NC(=O)N(C)C[C@H]2OCCCC[C@@H](C)Oc3ccc(NC(=O)NC(C)C)cc3C(=O)N([C@H](C)CO)C[C@@H]2C)cc1`: inactive: 1.01; `CC(C)NC(=O)NCC[C@H]1CC[C@H](NC(=O)CN(C)C)[C@H](CO)O1`: inactive: 0.97.
Next, `Cc1cccc(S(=O)(=O)N2C[C@H](O)COC[C@H]3O[C@@H](CC(=O)NCc4ccc5c(c4)OCO5)CC[C@@H]32)c1`: inactive: 1.
Under `Cc1ccc(S(=O)(=O)N(C)C[C@@H]2Oc3ccc(NC(=O)CCN4CCOCC4)cc3C(=O)N([C@H](C)CO)C[C@H]2C)cc1` stands inactive: 0.994; under `C[C@H](CO)N1C[C@H](C)[C@H](CN(C)Cc2ccc(C(F)(F)F)cc2)Oc2ccc(NC(=O)Nc3cccc4ccccc34)cc2CC1=O`, inactive: 1.01.
With `C[C@@H]1CN([C@@H](C)CO)C(=O)c2cc(C#Cc3ccccn3)cnc2O[C@H]1CN(C)C(=O)c1cnccn1`, the relative growth was inactive: 0.977.
On to `C[C@@H]1CCCCO[C@H](CN(C)C(=O)Nc2ccccc2)[C@H](C)CN([C@H](C)CO)C(=O)c2cc(NC(=O)Nc3ccc(F)cc3)ccc2O1`, for which the relative growth was inactive: 1.04.
Under `C[C@@H]1CCCCO[C@H](CN(C)C(=O)Nc2ccc(C(F)(F)F)cc2)[C@H](C)CN([C@H](C)CO)C(=O)c2cc(N(C)C)ccc2O1` stands inactive: 1.03; under `C[C@@H]1CN([C@H](C)CO)C(=O)c2cc(-c3ccc(F)cc3)cnc2O[C@H]1CN(C)C(=O)Cc1ccccn1`, inactive: 0.992; under `O=C(O)c1cccnc1`, inactive: 1.19.
Under `CC(=O)OCC(=O)C1(O)C(C)CC2C3CCC4=CC(=O)C=CC4(C)C3(F)C(O)CC21C` (stereo not drawn) stands inactive: 1.11.
Regarding `C[C@@H]1CN([C@H](C)CO)C(=O)CCCn2cc(nn2)CO[C@H]1CN(C)C(=O)c1cc(-c2ccccc2)on1`, the relative growth is inactive: 0.992.
Next, `C[C@@H]1CCCCO[C@@H](CN(C)C(=O)Nc2ccccc2)[C@@H](C)CN([C@@H](C)CO)C(=O)c2cc(NS(=O)(=O)c3ccc(Cl)cc3)ccc2O1`: inactive: 0.99.
Regarding `C[C@H](CO)N1C[C@H](C)[C@H](CN(C)Cc2ccc(C(F)(F)F)cc2)Oc2ccc(NC(=O)Nc3ccccc3)cc2CC1=O`, the relative growth was inactive: 1.02.
Under `COC(=O)c1cn(CC(=O)O)nn1` stands inactive: 0.978.
Next, `COc1ccc(S(=O)(=O)N(C)C[C@H]2Oc3ccc(NC(=O)c4ccncc4)cc3CC(=O)N([C@@H](C)CO)C[C@H]2C)cc1`: inactive: 1.01.
Next, `COc1cccc(NC(=O)N[C@H]2CC[C@@H](CC(=O)N3CCOCC3)O[C@H]2CO)c1`: inactive: 0.991.
On to `CC(C)=C[C@H]1[C@@H](c2nc3ccc(Br)cc3[nH]2)C1(C)C`, for which the relative growth is inactive: 0.954.
As to `CCS(=O)(=O)N1CC[C@]2(CC1)CN(Cc1ccc(cc1)OC)[C@H](CO)c1c2c2ccc(cc2n1C)OC`, the relative growth is inactive: 1.
Next, `C[C@H]1CCCCO[C@H](CN(C)S(=O)(=O)c2ccc(Cl)cc2)[C@@H](C)CN([C@@H](C)CO)C(=O)c2cc(NC(=O)Nc3ccccc3)ccc2O1`: inactive: 1.02; `C[C@H]1CN([C@@H](C)CO)C(=O)c2cc(C#CC(C)(C)O)cnc2O[C@@H]1CN(C)C(=O)CN(C)C`: inactive: 1; `COCCOC(=O)N1C(=O)[C@@]2(c3cc(C#Cc4ccc(OC)cc4)ccc31)[C@H](c1ccccc1OCCO)N1[C@H](c3ccccc3)[C@H](c3ccccc3)OC(=O)[C@H]1[C@@H]2C(=O)N1CCN(c2ncccn2)CC1`: inactive: 1.08.
For `CC(=O)N(C[C@@H](O)CO)c1c(I)c(C(=O)NCCO)c(I)c(C(=O)NC[C@@H](O)CO)c1I`, the relative growth is inactive: 0.979.
Next, `C[C@H](CO)N1C[C@H](C)[C@H](CN(C)Cc2ccc(Oc3ccccc3)cc2)Oc2c(NC(=O)Nc3ccc4c(c3)OCO4)cccc2C1=O`: inactive: 0.999; `O=C1C(NS(=O)(=O)c2ccc(Br)cc2)=C(c2ccc(OC(F)(F)F)cc2)C(=O)c2ccccc21`: inactive: 0.968.
Turning to `Cc1cc(O)c(-c2ccc([C@@H](C)CN)cc2)c2c1[nH]c(=O)c1sccc12`, the relative growth is inactive: 1.03.
Under `Cc1noc(C)c1S(=O)(=O)Nc1ccc2c(c1)CC(=O)N([C@@H](C)CO)C[C@@H](C)[C@@H](CN(C)S(=O)(=O)c1c(C)noc1C)O2` stands inactive: 0.991; under `C[C@H](O)C#Cc1cnc2c(c1)C(=O)N([C@@H](C)CO)C[C@H](C)[C@@H](CN(C)C(=O)Nc1ccc(C(F)(F)F)cc1)O2`, inactive: 0.963; under `COc1ccc(CN(C)C[C@H]2OCCCC[C@@H](C)Oc3ccc(NS(=O)(=O)c4cccs4)cc3C(=O)N([C@@H](C)CO)C[C@H]2C)cc1`, inactive: 0.978.
Next, `C[C@H]1CN([C@@H](C)CO)C(=O)c2cc(NS(=O)(=O)c3cccs3)ccc2O[C@H]1CN(C)Cc1ccncc1`: inactive: 0.986.
As to `COc1ccc(NC(=O)Nc2cccc3c2O[C@@H](CN(C)Cc2ccc(Oc4ccccc4)cc2)[C@H](C)CN([C@H](C)CO)C3=O)cc1`, the relative growth was inactive: 1.02.
In the case of `Cc1[nH]c(N)nc(=O)c1CC(=O)O`, the relative growth was inactive: 1.01.
Next, `O=C(C[C@@H]1C=C[C@H](NC(=O)Cc2ccccn2)[C@H](CO)O1)NCCCN1CCOCC1`: inactive: 1.01; `CC(C)(C)[S@](=O)N1Cc2cc(C(=O)NCc3ccc4c(c3)OCO4)nc(-c3cccc(-c4ccncc4)c3)c2[C@@H]1CCO`: inactive: 1.01; `Cc1ccc(S(=O)(=O)N(C)C[C@H]2OCCCC[C@H](C)Oc3ccc(NC(=O)Nc4ccccc4)cc3C(=O)N([C@@H](C)CO)C[C@H]2C)cc1`: inactive: 1.02.
Next, `COC(=O)c1ccc[nH]1`: inactive: 1.02.
Under `C[C@@H]1CN([C@H](C)CO)C(=O)CCCn2nncc2CO[C@@H]1CN(C)S(C)(=O)=O` stands inactive: 1.01.
Consider `Cc1ccc(S(=O)(=O)Nc2ccc3c(c2)C(=O)N([C@@H](C)CO)C[C@@H](C)[C@@H](CN(C)Cc2ccncc2)OCCCC[C@@H](C)O3)cc1`, for which the relative growth is inactive: 1.02.
Under `C[C@H](O)C#Cc1ccc2c(c1)O[C@@H](CN(C)C(=O)Cc1ccccn1)[C@@H](C)CN([C@H](C)CO)S2(=O)=O` stands inactive: 1.01.
Next, `O=C(C[C@H]1C=C[C@H](NC(=O)CN2CCOCC2)[C@@H](CO)O1)NC1CCCCC1`: inactive: 0.978; `C[C@H]1CCCCO[C@@H](CN(C)C)[C@@H](C)CN([C@@H](C)CO)C(=O)c2cc(NC(=O)Nc3ccc(C(F)(F)F)cc3)ccc2O1`: inactive: 0.934; `COC(=O)CCCCCCC(=O)N/N=C/[C@H](O)[C@@H](O)[C@@H](O)[C@H](O)C(=O)O`: inactive: 0.977.
Under `O=C(C[C@@H]1C=C[C@H](NC(=O)c2ccncc2)[C@@H](CO)O1)NCc1ccncn1` stands inactive: 0.988; under `CN(C)C(=O)c1cccc(-c2cccc(-c3nc(C(=O)N4CCCCC4)cc4c3[C@H](CCO)N([S@@](=O)C(C)(C)C)C4)c2)c1`, inactive: 0.824; under `C[C@@H]1CN([C@H](C)CO)C(=O)c2cc(NC(=O)Nc3ccc(F)cc3)ccc2O[C@@H](C)CCCCO[C@H]1CN(C)C(=O)C1CCCCC1`, inactive: 1.01.
With `O=C(Nc1ccc([N+](=O)[O-])cc1Cl)c1cc(Cl)ccc1O`, the relative growth is inactive: 0.88.
Next, `O=C1CCC(=O)N1Nc1ccccn1`: inactive: 0.821; `COc1cc(OC)c(C(=O)CCCN2CCCC2)c(OC)c1.Cl`: inactive: 1.04.
Turning to `Cc1cc(C(=O)Nc2cccc3c2O[C@H](CN(C)S(=O)(=O)c2cccs2)[C@@H](C)CN([C@@H](C)CO)C3=O)n(C)n1`, the relative growth is inactive: 1.02.
Next, `CN(C)CCCNc1ncnc(N)c1[N+](=O)[O-]`: inactive: 0.985; `CC(C)NC(=O)Nc1ccc2c(c1)C(=O)N(C)[C@H]1CC[C@@H](CC(=O)NCc3ccc(F)cc3)O[C@@H]1CO2`: inactive: 1; `O=C(O)[C@H]1C2C(=O)N3CCCO[C@@H]3[C@]23C=C[C@H]1O3` (stereo partly drawn): inactive: 1.
On to `Cc1ccc(NC(=O)C[C@H]2NCCNC2=O)cc1`, for which the relative growth was inactive: 0.944.
For the compound `Cc1noc(C)c1NC(=O)N(C)C[C@@H]1Oc2ccc(NC(=O)CCCN(C)C)cc2C(=O)N([C@H](C)CO)C[C@H]1C`, the relative growth was inactive: 1.01.
Under `C[C@@H]1CN([C@H](C)CO)C(=O)c2cccc(NC(=O)c3ccncc3)c2O[C@H]1CN(C)S(=O)(=O)c1ccccc1` stands inactive: 1; under `C[C@@H]1CN([C@H](C)CO)C(=O)c2cccc(NS(C)(=O)=O)c2O[C@@H]1CN(C)Cc1ccc2c(c1)OCO2`, inactive: 0.995; under `COCCOC(=O)N1C(=O)[C@@]2(c3cc(C#CCCO)ccc31)[C@H](C(=O)N1CCc3cc(OC)c(OC)cc3C1)[C@H]1C(=O)O[C@H](c3ccccc3)[C@H](c3ccccc3)N1[C@@H]2c1ccccc1OCCO`, inactive: 1.04.
Next, `C[C@H](CO)N1C[C@H](C)[C@H](CN(C)C(=O)Cc2ccncc2)Oc2ncc(C#CC3(O)CCCC3)cc2C1=O`: inactive: 0.979; `C[C@@H]1CN([C@H](C)CO)C(=O)CCCn2cc(nn2)CO[C@@H]1CN(C)C(=O)Nc1cccc(Oc2ccccn2)c1`: inactive: 0.982.
Next, `C[C@@H]1CN([C@H](C)CO)C(=O)c2cc(NC(=O)Nc3ccc(C(F)(F)F)cc3)ccc2O[C@@H](C)CCCCO[C@H]1CN(C)S(=O)(=O)c1cccs1`: inactive: 1.05; `O=C(C[C@H]1C[C@H]2c3cc(NC(=O)C4CCOCC4)ccc3O[C@H]2[C@H](CO)O1)NCc1cc(F)ccc1F`: inactive: 0.996.
As to `C[C@H](CO)N1C[C@H](C)[C@@H](CN(C)C(=O)Nc2ccc(C(F)(F)F)cc2)OCCCC[C@H](C)Oc2ccc(NC(=O)NC3CCCCC3)cc2C1=O`, the relative growth was inactive: 1.04.
